Data reported in the supplement of paper PMC9151546.
Single values are uncertain, as repeats are few or missing.

Legend:
CHO-K1 [1] = test: hypodiploid nuclei frequency (% of nucleated events); higher = more hypodiploid events (aneugenic)
CHO-K1 [2] = test: relative survival (nuclei to bead ratio vs DMSO control) (% of vehicle control); higher = more surviving cells
CHO-K1 [3] = test: micronucleus frequency (% of nucleated events); higher = more micronuclei (genotoxic)
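For hypodiploid nuclei frequency (% of nucleated events) in this document: hypodiploid nuclei gated on a flow cytometer with 488 nm excitation after SYTOX Green staining, cultures at 37 °C, positive controls vinblastine without S9 and cyclophosphamide with S9.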
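For micronucleus frequency (% of nucleated events) in this document: cells lysed with nuclei stained by SYTOX Green, then micronucleus-gated events counted against nucleated events by flow cytometry with 488 nm excitation.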
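For relative survival (nuclei to bead ratio vs DMSO control) in this document: Lysed-cell nuclei stained with SYTOX Green and counted against counting beads by flow cytometry at 488 nm excitation, with vinblastine (no S9) and cyclophosphamide (plus S9) as positive controls.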

CC(C)C(=O)Nc1ccc([N+](=O)[O-])c(C(F)(F)F)c1 [Flutamide]
Conditions	hypodiploid nuclei frequency, CHO-K1 [1] [%]	micronucleus frequency, CHO-K1 [3] [%]	relative survival, CHO-K1 [2]
concentration: 4.5 (µM), S9 metabolic activation: with S9, exposure time: 3-4 hours	0.36	1.7	84.6
concentration: 4.5 (µM), S9 metabolic activation: without S9, exposure time: 24 hours	0.56	1.08	90.1
concentration: 5.63 (µM), S9 metabolic activation: with S9, exposure time: 3-4 hours	0.28	1.36	94.2
concentration: 5.63 (µM), S9 metabolic activation: without S9, exposure time: 24 hours	0.42	1.12	100
concentration: 7.04 (µM), S9 metabolic activation: with S9, exposure time: 3-4 hours	0.4	1.6	110
concentration: 7.04 (µM), S9 metabolic activation: without S9, exposure time: 24 hours	0.64	1.42	107
concentration: 8.8 (µM), S9 metabolic activation: with S9, exposure time: 3-4 hours	0.38	2.08	94.4
concentration: 8.8 (µM), S9 metabolic activation: without S9, exposure time: 24 hours	0.48	1.2	90.4
concentration: 11 (µM), S9 metabolic activation: with S9, exposure time: 3-4 hours	0.32	1.62	103
concentration: 11 (µM), S9 metabolic activation: without S9, exposure time: 24 hours	0.84	1.44	97
concentration: 13.7 (µM), S9 metabolic activation: with S9, exposure time: 3-4 hours	0.3	1.74	89.3
concentration: 13.7 (µM), S9 metabolic activation: without S9, exposure time: 24 hours	0.78	1.08	83.5
concentration: 17.2 (µM), S9 metabolic activation: with S9, exposure time: 3-4 hours	0.4	1.88	101
concentration: 17.2 (µM), S9 metabolic activation: without S9, exposure time: 24 hours	0.7	1.7	83.5
concentration: 21.5 (µM), S9 metabolic activation: with S9, exposure time: 3-4 hours	0.28	1.66	99.5
concentration: 21.5 (µM), S9 metabolic activation: without S9, exposure time: 24 hours	0.7	1.24	85
concentration: 26.8 (µM), S9 metabolic activation: with S9, exposure time: 3-4 hours	0.4	0.86	105
concentration: 26.8 (µM), S9 metabolic activation: without S9, exposure time: 24 hours	1.14	1.46	104
concentration: 33.6 (µM), S9 metabolic activation: with S9, exposure time: 3-4 hours	0.24	0.96	113
concentration: 33.6 (µM), S9 metabolic activation: without S9, exposure time: 24 hours	1.32	1.86	84.1
concentration: 41.9 (µM), S9 metabolic activation: with S9, exposure time: 3-4 hours	0.3	1.38	100
concentration: 41.9 (µM), S9 metabolic activation: without S9, exposure time: 24 hours	1.14	2.26	78.8
concentration: 52.4 (µM), S9 metabolic activation: with S9, exposure time: 3-4 hours	0.36	1.1	75.6
concentration: 52.4 (µM), S9 metabolic activation: without S9, exposure time: 24 hours	1.42	2.12	69.4
concentration: 65.5 (µM), S9 metabolic activation: with S9, exposure time: 3-4 hours	0.34	1.36	72.3
concentration: 65.5 (µM), S9 metabolic activation: without S9, exposure time: 24 hours	1.02	1.92	64.4
concentration: 81.9 (µM), S9 metabolic activation: with S9, exposure time: 3-4 hours	0.28	1.48	78.1
concentration: 81.9 (µM), S9 metabolic activation: without S9, exposure time: 24 hours	1.08	2.32	65.6
concentration: 102 (µM), S9 metabolic activation: with S9, exposure time: 3-4 hours	0.22	1.04	78
concentration: 102 (µM), S9 metabolic activation: without S9, exposure time: 24 hours	1.12	2.16	63.7
concentration: 128 (µM), S9 metabolic activation: with S9, exposure time: 3-4 hours	0.18	1.08	69.4
concentration: 128 (µM), S9 metabolic activation: without S9, exposure time: 24 hours	0.96	1.82	56.9
concentration: 160 (µM), S9 metabolic activation: with S9, exposure time: 3-4 hours	0.34	1.26	68.6
concentration: 160 (µM), S9 metabolic activation: without S9, exposure time: 24 hours	0.86	1.54	57.5
concentration: 200 (µM), S9 metabolic activation: with S9, exposure time: 3-4 hours	0.2	1.44	66.2
concentration: 200 (µM), S9 metabolic activation: without S9, exposure time: 24 hours	0.76	1.84	60.2

CC1(C)NC(=O)N(c2ccc([N+](=O)[O-])c(C(F)(F)F)c2)C1=O [Nilutamide]
Conditions	hypodiploid nuclei frequency, CHO-K1 [1] [%]	micronucleus frequency, CHO-K1 [3] [%]	relative survival, CHO-K1 [2]
concentration: 4.5 (µM), S9 metabolic activation: with S9, exposure time: 3-4 hours	0.3	0.88	118
concentration: 4.5 (µM), S9 metabolic activation: without S9, exposure time: 24 hours	0.84	1.66	119
concentration: 5.63 (µM), S9 metabolic activation: with S9, exposure time: 3-4 hours	0.34	1.06	117
concentration: 5.63 (µM), S9 metabolic activation: without S9, exposure time: 24 hours	0.8	1.26	118
concentration: 7.04 (µM), S9 metabolic activation: with S9, exposure time: 3-4 hours	0.26	0.8	110
concentration: 7.04 (µM), S9 metabolic activation: without S9, exposure time: 24 hours	0.98	1.48	112
concentration: 8.8 (µM), S9 metabolic activation: with S9, exposure time: 3-4 hours	0.28	1.12	119
concentration: 8.8 (µM), S9 metabolic activation: without S9, exposure time: 24 hours	1	1.32	118
concentration: 11 (µM), S9 metabolic activation: with S9, exposure time: 3-4 hours	0.22	1.06	114
concentration: 11 (µM), S9 metabolic activation: without S9, exposure time: 24 hours	0.8	1.24	109
concentration: 13.7 (µM), S9 metabolic activation: with S9, exposure time: 3-4 hours	0.64	0.96	108
concentration: 13.7 (µM), S9 metabolic activation: without S9, exposure time: 24 hours	0.78	1.54	100
concentration: 17.2 (µM), S9 metabolic activation: with S9, exposure time: 3-4 hours	0.52	1	127
concentration: 17.2 (µM), S9 metabolic activation: without S9, exposure time: 24 hours	1.12	1.52	114
concentration: 21.5 (µM), S9 metabolic activation: with S9, exposure time: 3-4 hours	0.42	1.02	98.3
concentration: 21.5 (µM), S9 metabolic activation: without S9, exposure time: 24 hours	0.84	1.38	93
concentration: 26.8 (µM), S9 metabolic activation: with S9, exposure time: 3-4 hours	0.24	0.76	150
concentration: 26.8 (µM), S9 metabolic activation: without S9, exposure time: 24 hours	1.38	1.88	84.5
concentration: 33.6 (µM), S9 metabolic activation: with S9, exposure time: 3-4 hours	0.16	0.86	123
concentration: 33.6 (µM), S9 metabolic activation: without S9, exposure time: 24 hours	0.96	1.92	93.7
concentration: 41.9 (µM), S9 metabolic activation: with S9, exposure time: 3-4 hours	0.38	1	130
concentration: 41.9 (µM), S9 metabolic activation: without S9, exposure time: 24 hours	1.74	1.98	86.9
concentration: 52.4 (µM), S9 metabolic activation: with S9, exposure time: 3-4 hours	0.24	1.1	111
concentration: 52.4 (µM), S9 metabolic activation: without S9, exposure time: 24 hours	1.62	2.24	88.3
concentration: 65.5 (µM), S9 metabolic activation: with S9, exposure time: 3-4 hours	0.28	0.96	111
concentration: 65.5 (µM), S9 metabolic activation: without S9, exposure time: 24 hours	1.94	2	80.1
concentration: 81.9 (µM), S9 metabolic activation: with S9, exposure time: 3-4 hours	0.44	0.98	106
concentration: 81.9 (µM), S9 metabolic activation: without S9, exposure time: 24 hours	2.08	2.12	70.7
concentration: 102 (µM), S9 metabolic activation: with S9, exposure time: 3-4 hours	0.26	1.06	121
concentration: 102 (µM), S9 metabolic activation: without S9, exposure time: 24 hours	3.16	2.6	73.5
concentration: 128 (µM), S9 metabolic activation: with S9, exposure time: 3-4 hours	0.42	1.06	108
concentration: 128 (µM), S9 metabolic activation: without S9, exposure time: 24 hours	2.64	2.36	74.1
concentration: 160 (µM), S9 metabolic activation: with S9, exposure time: 3-4 hours	0.38	1.16	115
concentration: 160 (µM), S9 metabolic activation: without S9, exposure time: 24 hours	3.88	2.78	60.3
concentration: 200 (µM), S9 metabolic activation: with S9, exposure time: 3-4 hours	0.36	0.86	101
concentration: 200 (µM), S9 metabolic activation: without S9, exposure time: 24 hours	3.3	3.04	60.1

NNC(=O)c1ccncc1 [Isoniazid]
Conditions	hypodiploid nuclei frequency, CHO-K1 [1] [%]	micronucleus frequency, CHO-K1 [3] [%]	relative survival, CHO-K1 [2]
concentration: 1.98 (µM), S9 metabolic activation: with S9, exposure time: 3-4 hours	0.44	2.92	80.2
concentration: 1.98 (µM), S9 metabolic activation: without S9, exposure time: 24 hours	1.16	2.48	103
concentration: 2.48 (µM), S9 metabolic activation: with S9, exposure time: 3-4 hours	0.4	2.52	73.3
concentration: 2.48 (µM), S9 metabolic activation: without S9, exposure time: 24 hours	1.04	2	94.5
concentration: 3.1 (µM), S9 metabolic activation: with S9, exposure time: 3-4 hours	0.44	2.48	84.8
concentration: 3.1 (µM), S9 metabolic activation: without S9, exposure time: 24 hours	1.26	2.82	83.9
concentration: 3.87 (µM), S9 metabolic activation: with S9, exposure time: 3-4 hours	0.46	2	86
concentration: 3.87 (µM), S9 metabolic activation: without S9, exposure time: 24 hours	1.18	2.86	108
concentration: 4.84 (µM), S9 metabolic activation: with S9, exposure time: 3-4 hours	0.44	2.2	84.1
concentration: 4.84 (µM), S9 metabolic activation: without S9, exposure time: 24 hours	1.1	2.1	131
concentration: 6.05 (µM), S9 metabolic activation: with S9, exposure time: 3-4 hours	0.42	2.28	86.8
concentration: 6.05 (µM), S9 metabolic activation: without S9, exposure time: 24 hours	0.8	1.84	110
concentration: 7.56 (µM), S9 metabolic activation: with S9, exposure time: 3-4 hours	0.44	3.06	94.7
concentration: 7.56 (µM), S9 metabolic activation: without S9, exposure time: 24 hours	1.36	1.84	119
concentration: 9.45 (µM), S9 metabolic activation: with S9, exposure time: 3-4 hours	0.34	2.76	96.5
concentration: 9.45 (µM), S9 metabolic activation: without S9, exposure time: 24 hours	1.18	1.84	115
concentration: 11.8 (µM), S9 metabolic activation: with S9, exposure time: 3-4 hours	0.3	1.7	111
concentration: 11.8 (µM), S9 metabolic activation: without S9, exposure time: 24 hours	0.78	1.96	88.5
concentration: 14.8 (µM), S9 metabolic activation: with S9, exposure time: 3-4 hours	0.26	1.82	88.3
concentration: 14.8 (µM), S9 metabolic activation: without S9, exposure time: 24 hours	1.28	1.98	83
concentration: 18.5 (µM), S9 metabolic activation: with S9, exposure time: 3-4 hours	0.28	1.76	90.1
concentration: 18.5 (µM), S9 metabolic activation: without S9, exposure time: 24 hours	1.38	2.36	85.8
concentration: 23.1 (µM), S9 metabolic activation: with S9, exposure time: 3-4 hours	0.28	1.82	91.9
concentration: 23.1 (µM), S9 metabolic activation: without S9, exposure time: 24 hours	1.5	2.66	76.2
concentration: 28.8 (µM), S9 metabolic activation: with S9, exposure time: 3-4 hours	0.22	1.82	99.4
concentration: 28.8 (µM), S9 metabolic activation: without S9, exposure time: 24 hours	1.12	2.64	84.8
concentration: 36 (µM), S9 metabolic activation: with S9, exposure time: 3-4 hours	0.46	1.48	89.1
concentration: 36 (µM), S9 metabolic activation: without S9, exposure time: 24 hours	1.76	2.7	101
concentration: 45.1 (µM), S9 metabolic activation: with S9, exposure time: 3-4 hours	0.22	1.54	93.4
concentration: 45.1 (µM), S9 metabolic activation: without S9, exposure time: 24 hours	1.82	2.48	109
concentration: 56.3 (µM), S9 metabolic activation: with S9, exposure time: 3-4 hours	0.36	1.34	97.7
concentration: 56.3 (µM), S9 metabolic activation: without S9, exposure time: 24 hours	1.66	2.74	109
concentration: 70.4 (µM), S9 metabolic activation: with S9, exposure time: 3-4 hours	0.2	1.72	106
concentration: 70.4 (µM), S9 metabolic activation: without S9, exposure time: 24 hours	1.74	3.06	91
concentration: 88 (µM), S9 metabolic activation: with S9, exposure time: 3-4 hours	0.26	1.64	95.4
concentration: 88 (µM), S9 metabolic activation: without S9, exposure time: 24 hours	2.5	2.48	74.9
